Where a name gives a salt, the structure may show the parent alone. ± gives the standard deviation of the averaged measurements. Whole data set: some 3,200 compounds, median “nuclei count (viability) relative to DMSO” near 99, cut for the lowest 2% near 16. This is one part of the list.

This assay relates to U2OS. The experiment in a line: nuclei count (viability) relative to DMSO (% of DMSO); higher = more viable cells. Conditions: 10 µM; 24 h. The protocol:
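Primary image-based screen in U2OS cells: compounds at 10 uM for 24 h, then a 1 h o-propargyl-puromycin (OPP) pulse, click labelling, and high-throughput microscopy. Mean cytoplasmic OPP intensity and nuclei count were normalised to DMSO wells within each plate (DMSO = 100) and averaged over triplicate plates.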
`O=C(O)CCCc1c[nH]c2ccccc12` [3-Indolebutyric acid (IBA)]: the nuclei count was determined as 97.2.
`Clc1ccc2c(c1)C(N1CCNCC1)=Nc1ccccc1O2` [Amoxapine] yielded a nuclei count of 92.8.
The figure for `O=C(O)CCc1nc(-c2ccccc2)c(-c2ccccc2)o1` [Oxaprozin] is 103; for `CCCCCCCCOC(=O)/C=C/c1ccc(O)c(O)c1` [n-Octyl caffeate] it is 82; for `OCCN1CCN(CCCN2c3ccccc3Sc3ccc(C(F)(F)F)cc32)CC1` [Fluphenazine dihydrochloride] it is 99.5.
As for `CC(C)(Oc1ccc(CCNC(=O)c2ccc(Cl)cc2)cc1)C(=O)O` [Bezafibrate], the nuclei count worked out at 99.2 ± 17.
The compound `c1ccc(CC2=NCCN2)cc1` [Tolazoline hydrochloride] displayed a nuclei count of 99.9.
Compound `CC(C)C[C@H](NC(=O)[C@H](Cc1ccccc1)NC(=O)c1cnccn1)B(O)O` [Bortezomib (Velcade)] displayed a nuclei count of 7.65.
With `O=C(OCCN1CCOCC1)C1(c2ccccc2)CCCCC1` [PRE-084 hydrochloride] the figure was 101; with `COc1ccc(CC(C)NCC(O)c2ccc(O)c(NC=O)c2)cc1` (stereo unspecified) [Formoterol fumarate], 104.
In the case of `COc1ccc(CC(C)NCC(O)c2ccc(O)c(NC=O)c2)cc1` (stereo unspecified) [Formoterol hemifumarate], the nuclei count was determined as 95.5.
The compound `CS(=O)(=O)c1ccc(C(=O)Nc2ccc(Cl)c(-c3ccccn3)c2)c(Cl)c1` [Vismodegib (GDC-0449)] had a nuclei count of 96.
The figure for `COc1ccc(-c2coc3cc(O)ccc3c2=O)cc1` [Formononetin (Formononetol)] is 105.
For `CN1CCN(S(=O)(=O)c2ccc(-c3cnc(N)c(C(=O)Nc4cccnc4)n3)cc2)CC1`, the nuclei count amounted to 98.9.
The figure for `CNc1nc(-c2ccc3c(N)n[nH]c3c2)cc(N2C[C@@H](C(=O)NC3CCCCC3)CC[C@H]2C)n1` is 72.5; for `CCOC(=O)N1CCC(=C2c3ccc(Cl)cc3CCc3cccnc32)CC1` [Loratadine] it is 94.4; for `CCOC(=O)N1CCC(=C2c3ccc(Cl)cc3CCc3cccnc32)CC1` [Loratidine] it is 96.
`CC(C)Cc1ccc(C(C)C(=O)NO)cc1` (stereo unspecified) [Ibuproxam] registered a nuclei count of 95.9.
Compound `Nc1nc(F)nc2c1ncn2[C@@H]1O[C@H](COP(=O)(O)O)[C@@H](O)[C@@H]1O` [Fludarabine Phosphate (Fludara)] showed a nuclei count of 96.4.
For the compound `O=C(NOCC1CC1)c1ccc(F)c(F)c1Nc1ccc(I)cc1Cl`, the nuclei count came to 91.3.
With `CC1(C)CCC(c2ccc(Cl)cc2)=C(CN2CCN(c3ccc(C(=O)NS(=O)(=O)c4ccc(N[C@H](CCN5CCOCC5)CSc5ccccc5)c(S(=O)(=O)C(F)(F)F)c4)cc3)CC2)C1` [ABT-263 (Navitoclax)] the figure was 69.9.
For the compound `COc1[nH]c2ccc(F)cc2c1C(=O)OCC1CCN(CCNS(C)(=O)=O)CC1.NS(=O)(=O)O`, the nuclei count was 103.
Compound `COC(=O)[C@H](c1ccccc1Cl)N1CCc2sccc2C1` [Clopidogrel (Plavix)] yielded a nuclei count of 103.
In turn, `C[C@]12CCC(=O)C=C1CC[C@@H]1[C@@H]2C(=O)C[C@@]2(C)[C@H]1CC[C@]2(O)C(=O)CO` [Cortisone] showed a nuclei count of 94.3 ± 6.4.
Turning to `COCCCC/C(=N\OCCN)c1ccc(C(F)(F)F)cc1` [Fluvoxamine maleate], the nuclei count turned out to be 105 ± 4.9.
The compound `CCCCC1CCC(c2nc(-c3ccncc3)no2)CC1` (stereo unspecified) displayed a nuclei count of 96.5.
`O=C(Nc1cc(C(F)(F)F)cc(C(F)(F)F)c1)c1cc(Cl)ccc1O` had a nuclei count of 78.7.
Compound `CN(C)[C@@H]1C(O)=C(C(N)=O)C(=O)[C@@]2(O)C(O)=C3C(=O)c4c(O)cccc4[C@@](C)(O)[C@H]3C[C@@H]12` [Tetracycline hydrochloride] had a nuclei count of 112.
The compound `NC(=O)N1CCC(CC(=O)N2CCC([C@H]3c4ncc(Br)cc4CCc4cc(Cl)cc(Br)c43)CC2)CC1` returned a nuclei count of 75.9.
Compound `C[C@H](N[C@@H](CCc1ccccc1)C(=O)O)C(=O)N1CCC[C@H]1C(=O)O` [Enalaprilat dihydrate] gave a nuclei count of 94.3.
With `O=C1N[C@H](C(=O)O)CS1` [Procysteine] the figure was 106; with `COc1ccc(CN2C(=O)C(=O)c3cc(OC(F)(F)F)ccc32)cc1`, 17.3; with `Cc1nnc(C(=O)NC(C)(C)c2nc(C(=O)NCc3ccc(F)cc3)c(O)c(=O)n2C)o1` [Raltegravir (MK-0518)], 101.
For the compound `c1ccc(NCc2ccc(CNc3ccccn3)cc2)nc1`, the nuclei count came to 107.
In turn, `O=C(O)c1cn(-c2ccc(F)cc2)c2cc(N3CCNCC3)c(F)cc2c1=O` [Sarafloxacin] came in with a nuclei count of 89.2.
`C[C@@H](NCc1cc(Br)cc2[nH]c(=O)c(=O)[nH]c12)P(=O)(O)O` gave a nuclei count of 99.8.
As to `CC[C@H](/C=C/[C@@H](C)[C@H]1CC[C@H]2[C@@H]3CC=C4C[C@@H](O)CC[C@]4(C)[C@H]3CC[C@]12C)C(C)C` [Stigmasterol (Stigmasterin)], the nuclei count was 105.
`COc1cccc(/C=N/N=C/c2cccc(OC)c2)c1` had a nuclei count of 102.
`O=C(NC[C@H]1CN(c2ccc(N3CCOCC3=O)cc2)C(=O)O1)c1ccc(Cl)s1` [Rivaroxaban (Xarelto)] came in with a nuclei count of 109.
`O=C(O)c1ccc(O)c(O)c1` [Protocatechuic acid] showed a nuclei count of 102.
Take `C[C@@H]1C[C@H]2[C@@H]3C[C@H](F)C4=CC(=O)C=C[C@]4(C)[C@@]3(F)[C@@H](O)C[C@]2(C)[C@@]1(O)C(=O)CO` [Flumethasone]: the nuclei count was determined as 113.
In the case of `Cc1cc2c(cc1CC(=O)c1sccc1S(=O)(=O)Nc1onc(C)c1Cl)OCO2`, the nuclei count is 103.
Regarding `O=C(O)Cc1ccc(-c2ccccc2)cc1` [Felbinac], the nuclei count amounted to 104.
Take `N[C@H](C(=O)O)c1ccc(O)c(C(=O)O)c1` [(S)-3-Carboxy-4-hydroxyphenylglycine]: the nuclei count is 106.
`C[C@@]1(C(=O)Nc2ccc(F)nc2)CCCN1c1nc(Nc2cc(C3CC3)n[nH]2)c2cccn2n1` returned a nuclei count of 39.4.
Regarding `Clc1ccc(CCC(Cn2ccnc2)Sc2c(Cl)cccc2Cl)cc1` (stereo unspecified) [Butoconazole nitrate], the nuclei count is 103.
For `N#Cc1ccc(C(c2ccc(C#N)cc2)n2cncn2)cc1` [Letrozole], the nuclei count worked out at 105.
Consider `C[N+]1(C)CCC(OC(=O)C(O)(c2ccccc2)C2CCCC2)C1` (stereo unspecified) [Glycopyrrolate], for which the nuclei count was determined as 109.
With `O=C(Nc1cccc(Cl)c1)c1ccccn1`, the nuclei count was determined as 97.7.
Compound `NCc1ccccc1CC(=O)N[C@@H]1C(=O)N2C(C(=O)O)=C(CSc3nnnn3CC(=O)O)CS[C@H]12` [Ceforanide] had a nuclei count of 100.
In the case of `N=C(NCCCCCCNC(=N)NC(=N)Nc1ccc(Cl)cc1)NC(=N)Nc1ccc(Cl)cc1` [Chlorhexidine], the nuclei count worked out at 75.6.
Turning to `COc1c2occc2cc2ccc(=O)oc12` [Methoxsalen (Oxsoralen)], the nuclei count was 101.
`COc1ccc2c(OCc3nnc4ccc(-c5ccccc5)nn34)ccnc2c1` returned a nuclei count of 110.
`CN1CCN(C2=Nc3ccccc3Oc3ccc(Cl)cc32)CC1` [Loxapine succinate] registered a nuclei count of 101.
Turning to `CCN(CC)CCOC(=O)C1(C2CCCCC2)CCCCC1` [Dicyclomine hydrochloride], the nuclei count was 102.
For the compound `CCCCC(O)c1ccccc1` (stereo unspecified) [Fenipentol], the nuclei count was determined as 91.7.
`CC(N/C(=N\C#N)Nc1ccncc1)C(C)(C)C` (stereo unspecified) [Pinacidil] returned a nuclei count of 100.
The figure for `CC(N/C(=N\C#N)Nc1ccncc1)C(C)(C)C` (stereo unspecified) [Pinacidil H2O] is 104; for `CCCc1cc(C)[nH]c(=O)c1CNC(=O)c1cc(-c2ccc(N3CCN(C(C)C)CC3)nc2)cc2c1cnn2C(C)C` it is 81.1.
For the compound `C[N+]1(C)CCC(OC(=O)C(c2ccccc2)c2ccccc2)CC1`, the nuclei count was determined as 106.
Regarding `NC(=O)c1ccc(N(C(N)=O)c2c(F)cccc2F)nc1-c1ccc(F)cc1F`, the nuclei count turned out to be 104.
Compound `CC(=O)Oc1ccccc1C(=O)Nc1ncc([N+](=O)[O-])s1` [Nitazoxanide (Alinia, Annita)] had a nuclei count of 98.5.
`O=Cc1c2[nH]c3ccccc3c2cc2[nH]c3ccccc3c12` [6-Formylindolo [3,2-B] carbazole]: the nuclei count came to 89.3.
Turning to `CN(C)CCCN1c2ccccc2Sc2ccc(C(F)(F)F)cc21` [Triflupromazine hydrochloride], the nuclei count turned out to be 97.5.
In the case of `COc1ccc([C@@H]2CC(=O)c3c(O)cc(O)cc3O2)cc1O` [Hesperetin], the nuclei count was determined as 87.
For `O/N=C/c1ccc(-c2ccc(O)c(F)c2)c(Cl)c1O`, the nuclei count turned out to be 93.5.
In the case of `N=C(NC(=O)c1nc(Cl)c(N)nc1N)Nc1ccccc1` [Phenamil], the nuclei count was 93.3.
For `COc1ccc2c(c1)CCC1C2CCC2(C)C(NCCCCCCN3C(=O)C=CC3=O)CCC12` (stereo unspecified), the nuclei count worked out at 98.9.
`COc1ccc(-c2ccc3c(N4CCOC[C@@H]4C)nc(N4CCOC[C@@H]4C)nc3n2)cc1CO` yielded a nuclei count of 78.3.
As to `COC(=O)C1=C(C)NC(C)=C([N+](=O)[O-])C1c1ccccc1C(F)(F)F` (stereo unspecified), the nuclei count amounted to 103.
The compound `COc1cc(C(=O)OCCCN2CCCN(CCCOC(=O)c3cc(OC)c(OC)c(OC)c3)CC2)cc(OC)c1OC` [Dilazep dihydrochloride] had a nuclei count of 87.4 ± 3.2.
With `CC(C)C[C@H](NP(=O)(O)O[C@@H]1O[C@@H](C)[C@H](O)[C@@H](O)[C@H]1O)C(=O)N[C@@H](Cc1c[nH]c2ccccc12)C(=O)O` [Phosphoramidon] the figure was 101; with `COc1c(C)c(C(=O)c2ccc(N)c(C(=O)O)c2)n2ccccc12`, 105.
In turn, `CCCCC/N=c1\ccn(Cc2ccccc2)c2ccccc12` returned a nuclei count of 71.3.
The compound `O=C1c2c(O)cccc2Cc2cccc(O)c21` [Anthralin] displayed a nuclei count of 111.
Compound `CN1c2cc3c(cc2N=C(c2ccc(C(=O)O)cc2)c2ccccc21)C(C)(C)CCC3(C)C` came in with a nuclei count of 99.4.
Consider `COc1nccc(-c2c(-c3ccc(F)cc3)ncn2C2CCC(O)CC2)n1` (stereo unspecified), for which the nuclei count worked out at 98.6.
`CC(=O)Nc1cccc(-n2c(=O)n(C3CC3)c(=O)c3c(Nc4ccc(I)cc4F)n(C)c(=O)c(C)c32)c1` had a nuclei count of 86.
The figure for `C[C@@H](NCCCc1cccc(C(F)(F)F)c1)c1cccc2ccccc12` [AMG-073 HCl (Cinacalcet HCl)] is 101.
In turn, `Nc1[nH]cnc2ncnc1-2` [Adenine] registered a nuclei count of 93.
`Nc1[nH]cnc2ncnc1-2` [Adenine sulfate]: the nuclei count was 107.

Source of the values: the supplement of paper PMC8183993.
